In PubChem BioAssay AID488969 (Vanderbilt High Throughput Screening Facility, 2010):
The full ranking holds about 110,000 compounds; the median of “z-score” is about -0.1, and the highest 2% start at about 2. The list shows a part of the results. Activity calls are given as the source filed them.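 How the source made its calls: active means z-score in the third read window above 3 or below -3; inactive means the rest.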

Target: Metabotropic glutamate receptor 8 (Rattus norvegicus) (UniProt P70579)
Test: rat mGluR8 modulators via GIRK flux, primary screen, cell-based, thallium flux, HTS (AID 488969)
Settings: HEK293 rat mGluR8, GIRK (G protein-gated inwardly rectifying potassium channel) thallium flux, FluoZin2; at 10 µM; stronger effect = higher value; submaximal glutamate (EC20) added with thallium

UniProt P70579, sequence (P70579 whole entry, looked up): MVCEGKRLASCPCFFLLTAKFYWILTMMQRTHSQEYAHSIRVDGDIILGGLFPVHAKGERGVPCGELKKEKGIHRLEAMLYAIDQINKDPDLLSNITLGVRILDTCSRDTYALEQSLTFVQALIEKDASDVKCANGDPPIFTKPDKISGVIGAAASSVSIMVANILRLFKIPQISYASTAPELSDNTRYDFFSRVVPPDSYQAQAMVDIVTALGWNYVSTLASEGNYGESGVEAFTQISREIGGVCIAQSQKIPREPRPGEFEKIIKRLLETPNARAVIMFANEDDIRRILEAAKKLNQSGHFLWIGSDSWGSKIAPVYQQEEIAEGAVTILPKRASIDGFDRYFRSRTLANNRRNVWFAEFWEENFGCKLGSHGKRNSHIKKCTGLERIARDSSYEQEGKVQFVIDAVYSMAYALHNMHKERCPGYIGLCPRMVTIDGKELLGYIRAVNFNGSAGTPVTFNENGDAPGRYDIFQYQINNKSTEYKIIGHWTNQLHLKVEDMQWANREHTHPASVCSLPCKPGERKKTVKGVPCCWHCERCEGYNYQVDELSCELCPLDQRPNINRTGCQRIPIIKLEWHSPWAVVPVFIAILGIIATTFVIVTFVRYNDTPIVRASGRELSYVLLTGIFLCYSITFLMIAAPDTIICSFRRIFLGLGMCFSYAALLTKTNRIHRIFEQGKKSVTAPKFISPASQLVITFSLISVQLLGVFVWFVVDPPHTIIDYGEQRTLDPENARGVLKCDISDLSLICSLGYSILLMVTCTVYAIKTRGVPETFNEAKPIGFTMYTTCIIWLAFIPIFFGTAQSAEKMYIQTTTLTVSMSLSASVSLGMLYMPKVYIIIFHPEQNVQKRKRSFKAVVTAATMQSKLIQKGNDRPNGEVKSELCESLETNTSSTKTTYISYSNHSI

Row | SMILES | z-score
1 | CC(=O)c1oc2ccccc2c1NC(=O)CN1CCCCC1 | -0.887
2 | O=C(N/N=C/c1cccnc1)C(O)(c1ccccc1)c1ccccc1 | -0.223
3 | CCOC(=O)c1[nH]c2ccc(OC)cc2c1NC(=S)N1CCN(c2ccccc2OC)CC1 | -0.555
4 | CC(C)OC(=O)CC12CN3CN(C1)CC(CC(=O)OC(C)C)(C3)C2=O | active: 3.43
5 | CCOC(=O)N1CCN(CCC(=O)Nc2ccccc2OC)CC1 | -0.0533
6 | Cc1ccc(Cc2cncc(O)c2)cc1S(=O)(=O)O | 0.05
7 | Cn1c(CCN2CCN(c3ccc(F)cc3)CC2)nc2cc(NC(=O)c3ccco3)ccc21 | -2.09
8 | C1CCCCCC2(CCCCC1)OCC(CN1CCOCC1)O2 (centres undefined) | 0.0135
9 | O=C(Oc1ccccc1[N+](=O)[O-])c1cccnc1 | -0.126
10 | Cc1cccc(C(=O)Oc2ccc(/C=N/O)cc2)c1 | 0.0873
11 | COCc1cc(C)nc2sc(C(=O)OC)c(N)c12 | -0.0512
12 | COCCNC(=O)c1ccc(Cn2c(=S)[nH]c3cc4c(cc3c2=O)OCO4)cc1 | -0.3
13 | Cc1ccc(Nc2nc(Oc3ccc(=O)[nH]n3)nc(N(C)C)n2)cc1 | -0.00557
14 | Cc1ccc(S(=O)(=O)Nc2ccncc2)c(C)c1N(C)S(=O)(=O)c1ccc(F)cc1 | -0.149
15 | C/C(=C\C(=O)c1cccnc1)Nc1ccc(C(=O)O)cc1 | -0.131
16 | CC(C)Sc1nc2sc(-c3ccccc3)cc2c(=O)n1N | -0.258
17 | O=[N+]([O-])c1ccc(N2CCN(CCO)CC2)cc1Sc1nc2ccccc2[nH]1 | -0.579
18 | CCCCn1c(CNC(=O)C23CC4CC(CC(C4)C2)C3)nnc1SCC(=O)Nc1nnc(C)s1 | -0.306
19 | COc1cccc(C2NC(=O)c3ccccc3O2)c1OC (centres undefined) | 0.323
20 | O=C(CCn1c(=O)sc2ccccc21)NCc1ccc2c(c1)OCO2 | -0.209
21 | COCCNC(=S)NC12CC3CC(CC(C3)C1)C2 | -0.119
22 | COc1cc(-n2nnnc2SCC(=O)N2CCN(c3ccc(F)cc3)CC2)c(OC)cc1Cl | 0.181
23 | COc1ccc(C(=O)/C=C\N2CCOCC2)cc1 | -0.512

Row | SMILES | z-score
24 | Cc1ccc(OCCN2C(=O)c3ccccc3C2=O)c(C)c1 | -0.139
25 | Cc1ccc(-c2nnc3c4ccccc4c(C)nn23)cc1NC(=O)c1ccco1 | -0.787
26 | FC(F)(F)c1ccccc1C1C2=C(Nc3ncnn31)c1ccccc1CCC2 (centres undefined) | -0.375
27 | Cc1nnc(SCC(=O)NCc2ccco2)n1-c1ccc(F)cc1 | -0.206
28 | CCOC(=O)c1cc(-c2ccccc2)sc1NC(=O)C(C)N1C(=O)NC(C)(c2ccc(Cl)cc2)C1=O (centres undefined) | -0.391
29 | O=C1NC(Nc2ccccn2)(C(F)(F)F)C(=O)N1c1ccc(F)cc1 (centres undefined) | -0.0125
30 | COc1ccc(-c2cc(C(=O)Oc3ccc([N+](=O)[O-])cc3)c3ccccc3n2)cc1 | -0.189
31 | Cc1cccc(C)c1NC(=O)CCCN1CC(C)OC(C)C1 (centres undefined) | -0.0952
32 | OCCCNc1nc(-c2ccc(Cl)cc2)nnc1-c1ccccc1 | -0.927
33 | O=C(Nc1ncc2c(n1)-c1ccccc1CC2)c1ccc(Cl)cc1 | -0.19
34 | COc1ccc(NC(=O)C2CCCN(S(=O)(=O)c3ccc4c(c3)oc(=O)n4C)C2)c(OC)c1 (centres undefined) | -0.0132
35 | COc1cc(/C=C/C2=NC(=O)C(C)(C)O2)ccc1O | 0.388
36 | COc1ccc(CCNC(=O)c2cccnc2)cc1OC | -0.38
37 | CC(C)(C)n1nnnc1CN1CCN(C(c2ccccc2)c2ccccc2)CC1 | -0.289
38 | COc1ccc(CCN2C(=O)c3[nH]nc(-c4ccccc4O)c3C2c2cccc(Cl)c2)cc1 (centres undefined) | 0.144
39 | CCCOc1ccc(-c2nn(-c3ccccc3)cc2/C=C2\SC(N)=NC2=O)cc1C | -0.00817
40 | O=C(OCC(O)CN1CCCCC1)C12CC3CC(CC(C3)C1)C2 (centres undefined) | 0.578
41 | Cc1cc(C(F)(F)F)nc(SCC(=O)Nc2cc(C)on2)n1 | 0.254
42 | O=C1c2ccccc2C(=O)N1CCC(=O)N1CCc2ccccc21 | -0.497
43 | CSCC[C@H](NC(=O)COc1ccc(Cl)cc1Cl)c1nc2ccccc2[nH]1 | 0.437
44 | CC(C)Oc1ccc(CSC(=N)N)cc1 | 0.155
45 | CSCCC(NC(=O)c1ccccc1)C(=O)NC1CCCC1 (centres undefined) | 0.435
46 | NC(=O)C1CCN(C2CC(=O)N(Cc3ccc(N4CCCC4=O)cc3)C2=O)CC1 (centres undefined) | 0.514

Row | SMILES | z-score
47 | COc1ccc(C(=O)CSc2nnc(-c3cc(C)on3)o2)cc1 | -0.321
48 | CCOC(=O)N1CCC(N(CCOC)C(=O)Nc2ccc(C)c(C)c2)CC1 | -0.232
49 | COc1ccccc1-n1c(=O)[nH]c2c(C(N)=O)nc(C3CCCCC3)nc21 | -0.356
50 | O=C(Nc1ccc(N2CCN(Cc3ccccc3)CC2)cc1)c1ncn[nH]1 | -0.484
51 | O=c1[nH]n(-c2cccc3cccnc23)c(=O)c2ccccc12 | -0.927
52 | O=C(Cn1nnc2ccccc2c1=O)Nc1ccc2c(c1)CCC2 | -0.0562
53 | Cc1ccc(NC(=O)c2ccccc2Cl)c(Cl)c1 | -0.239
54 | COC(=O)c1sccc1NC(=O)c1sccc1C | -0.117
55 | COc1ccc(-c2noc(-c3ccccc3C(=O)Nc3cccc(OC)c3)n2)cc1 | -0.272
56 | Cc1ccc(-c2nn(-c3ccccc3)cc2/C=C(\C#N)c2cccc(C#N)c2)o1 | 0.0362
57 | O=C(Oc1ccc(OC(=O)N2CCOCC2)cc1)c1ccccc1 | -0.672
58 | O=C(OCC(=O)N1CCc2ccccc21)c1ccccc1 | 0.694
59 | CC(C)CC1=NC(C(F)(F)F)(C(F)(F)F)c2c(n(CC(C)C)c(=O)[nH]c2=O)N1 | 0.971
60 | CC(C)(C)C(=O)Nc1ccc(Oc2ccc3c(c2)C(=O)N(c2ccc(O)cc2)C3=O)cc1 | -0.214
61 | O=C1CCCN1CC(O)CS(=O)(=O)c1ccccc1 (centres undefined) | 0.0491
62 | O=C(COc1ccc(Cl)cc1)Nc1ccc2oc(-c3ccncc3)nc2c1 | 0.0431
63 | Cc1c(NC(=O)c2cc3ccccc3oc2=O)c(=O)n(-c2ccccc2)n1C | -0.0487
64 | Cc1ccc(-c2csc(=Nc3cccnc3)n2CCCn2ccnc2)cc1C | 0.094
65 | CCOC(=O)CSc1nc2cc(C(=O)NCC3CCCO3)ccc2c(=O)n1Cc1ccco1 (centres undefined) | -0.125
66 | Cc1ccc(O)c(C2=NNC(O)(C(F)(F)F)C2)c1 (centres undefined) | -0.332
67 | COc1ccc(-n2nc3cc(C)c(NC(=S)NC(=O)c4ccccc4C)cc3n2)cc1 | 0.601
68 | Cc1cccc(N(C(=O)c2ccc(CN3CCOCC3)o2)C(C(=O)NC2CCCCC2)c2ccc(F)cc2)c1 (centres undefined) | -0.0528
69 | CCC(C(=O)NCc1ccco1)N(C(=O)CNS(=O)(=O)c1ccccc1)C1CCCCC1 (centres undefined) | -0.0212
